{"source": "the supplement of paper PMC8728848", "binders": {"B1": {"name": "Epa7 (Candida glabrata), Q6DTM6_CANGB (protein)", "chain": "MGSSHHHHHHSSGLVPRGSHMKDDYSSFLSNNNLGWTDPTEFPLGCSPNVTTPKNGLSMELYSYDLRKNGSYPCWDAAYLDPNYPRTGYKSHRLLAKVDGVTGNINFYYHATKGCTPEIDHLPASYNYPKPLTMTNFTMLLYGYFKPKVTGYHTFTISADDLLFVNFGAGNAFDCCKRESSADDFGNYQAYAVWGSQTAKDDLTVHLDAGLYYPIRIFFNNREYDAELSLTLKTESDSNPVIDFSDYFYSFDDTKDGCPGLVSYDTS"}}, "experiment_in_all_cases": "glycan array binding signal (z-score within array); higher = stronger binding", "settings_in_all_cases": "glycan notation: IUPAC condensed, linker removed", "key": {"[1]": {"target": "Gal(b1-4)GlcNAc(b1-3)Gal(b1-3)GlcNAc", "procedure,_shortened": "(§1)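 Glycan array data came from 3228 arrays in the Consortium for Functional Glycomics database, and only arrays with an available protein sequence were kept. Glycan names were put into IUPAC-condensed notation, and columns mapping to the same glycan were averaged. The binding signal is a within-array Z-score, averaged across arrays of one protein sequence run at different concentrations or buffers and across linkers. A negative Z-score can be read as non-binding.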"}, "[2]": {"target": "Gal(b1-4)GlcNAc(b1-3)Gal(b1-4)Glc", "procedure,_shortened": "as §1"}, "[3]": {"target": "Gal(b1-4)GlcNAc(b1-3)Gal(b1-4)GlcNAc", "procedure,_shortened": "as §1"}, "[4]": {"target": "Gal(b1-4)GlcNAc(b1-3)Gal(b1-4)GlcNAc(b1-2)Man(a1-3)[Gal(b1-4)GlcNAc(b1-3)Gal(b1-4)GlcNAc(b1-2)Man(a1-6)]Man(b1-4)GlcNAc(b1-4)GlcNAc", "procedure,_shortened": "as §1"}, "[5]": {"target": "Gal(b1-4)GlcNAc(b1-3)Gal(b1-4)GlcNAc(b1-2)Man(a1-3)[Gal(b1-4)GlcNAc(b1-3)Gal(b1-4)GlcNAc(b1-2)Man(a1-6)]Man(b1-4)GlcNAc(b1-4)[Fuc(a1-6)]GlcNAc", "procedure,_shortened": "as §1"}, "[6]": {"target": "Gal(b1-4)GlcNAc(b1-3)Gal(b1-4)GlcNAc(b1-2)[Gal(b1-4)GlcNAc(b1-3)Gal(b1-4)GlcNAc(b1-6)]Man(a1-6)[Gal(b1-4)GlcNAc(b1-3)Gal(b1-4)GlcNAc(b1-2)Man(a1-3)]Man(b1-4)GlcNAc(b1-4)GlcNAc", "procedure,_shortened": "as §1"}, "[7]": {"target": "Gal(b1-4)GlcNAc(b1-3)Gal(b1-4)GlcNAc(b1-2)[Gal(b1-4)GlcNAc(b1-3)Gal(b1-4)GlcNAc(b1-6)]Man(a1-6)[Gal(b1-4)GlcNAc(b1-3)Gal(b1-4)GlcNAc(b1-2)Man(a1-3)]Man(b1-4)GlcNAc(b1-4)[Fuc(a1-6)]GlcNAc", "procedure,_shortened": "as §1"}, "[8]": {"target": "Gal(b1-4)GlcNAc(b1-3)Gal(b1-4)GlcNAc(b1-3)Gal(b1-4)GlcNAc", "procedure,_shortened": "as §1"}, "[9]": {"target": "Gal(b1-4)GlcNAc(b1-3)Gal(b1-4)GlcNAc(b1-3)Gal(b1-4)GlcNAc(b1-2)Man(a1-3)[Gal(b1-4)GlcNAc(b1-3)Gal(b1-4)GlcNAc(b1-3)Gal(b1-4)GlcNAc(b1-2)Man(a1-6)]Man(b1-4)GlcNAc(b1-4)GlcNAc", "procedure,_shortened": "as §1"}, "[10]": {"target": "Gal(b1-4)GlcNAc(b1-3)Gal(b1-4)GlcNAc(b1-3)Gal(b1-4)GlcNAc(b1-2)Man(a1-3)[Gal(b1-4)GlcNAc(b1-3)Gal(b1-4)GlcNAc(b1-3)Gal(b1-4)GlcNAc(b1-2)Man(a1-6)]Man(b1-4)GlcNAc(b1-4)[Fuc(a1-6)]GlcNAc", "procedure,_shortened": "as §1"}, "[11]": {"target": "Gal(b1-4)GlcNAc(b1-3)Gal(b1-4)GlcNAc(b1-3)Gal(b1-4)GlcNAc(b1-2)[Gal(b1-4)GlcNAc(b1-3)Gal(b1-4)GlcNAc(b1-3)Gal(b1-4)GlcNAc(b1-6)]Man(a1-6)[Gal(b1-4)GlcNAc(b1-3)Gal(b1-4)GlcNAc(b1-3)Gal(b1-4)GlcNAc(b1-2)Man(a1-3)]Man(b1-4)GlcNAc(b1-4)[Fuc(a1-6)]GlcNAc", "procedure,_shortened": "as §1"}, "[12]": {"target": "Gal(b1-4)GlcNAc(b1-3)Gal(b1-4)GlcNAc(b1-3)Gal(b1-4)GlcNAc(b1-3)Gal(b1-4)GlcNAc(b1-2)Man(a1-3)[Gal(b1-4)GlcNAc(b1-3)Gal(b1-4)GlcNAc(b1-3)Gal(b1-4)GlcNAc(b1-3)Gal(b1-4)GlcNAc(b1-2)Man(a1-6)]Man(b1-4)GlcNAc(b1-4)GlcNAc", "procedure,_shortened": "as §1"}, "[13]": {"target": "Gal(b1-4)GlcNAc(b1-3)Gal(b1-4)GlcNAc(b1-3)Gal(b1-4)GlcNAc(b1-3)Gal(b1-4)GlcNAc(b1-2)Man(a1-3)[Gal(b1-4)GlcNAc(b1-3)Gal(b1-4)GlcNAc(b1-3)Gal(b1-4)GlcNAc(b1-3)Gal(b1-4)GlcNAc(b1-2)Man(a1-6)]Man(b1-4)GlcNAc(b1-4)[Fuc(a1-6)]GlcNAc", "procedure,_shortened": "as §1"}, "[14]": {"target": "Gal(b1-4)GlcNAc(b1-3)Gal(b1-4)GlcNAc(b1-3)Gal(b1-4)GlcNAc(b1-3)Gal(b1-4)GlcNAc(b1-2)[Gal(b1-4)GlcNAc(b1-3)Gal(b1-4)GlcNAc(b1-3)Gal(b1-4)GlcNAc(b1-3)Gal(b1-4)GlcNAc(b1-6)]Man(a1-6)[Gal(b1-4)GlcNAc(b1-3)Gal(b1-4)GlcNAc(b1-3)Gal(b1-4)GlcNAc(b1-3)Gal(b1-4)GlcNAc(b1-2)Man(a1-3)]Man(b1-4)GlcNAc(b1-4)[Fuc(a1-6)]GlcNAc", "procedure,_shortened": "as §1"}, "[15]": {"target": "Gal(b1-4)GlcNAc(b1-3)Gal(b1-4)GlcNAc(b1-3)Gal(b1-4)GlcNAc(b1-3)Gal(b1-4)GlcNAc(b1-3)Gal(b1-4)GlcNAc(b1-2)Man(a1-3)[Gal(b1-4)GlcNAc(b1-3)Gal(b1-4)GlcNAc(b1-3)Gal(b1-4)GlcNAc(b1-3)Gal(b1-4)GlcNAc(b1-3)Gal(b1-4)GlcNAc(b1-2)Man(a1-6)]Man(b1-4)GlcNAc(b1-4)GlcNAc", "procedure,_shortened": "as §1"}, "[16]": {"target": "Gal(b1-4)GlcNAc(b1-3)Gal(b1-4)GlcNAc(b1-3)Gal(b1-4)GlcNAc(b1-3)Gal(b1-4)GlcNAc(b1-3)Gal(b1-4)GlcNAc(b1-2)Man(a1-3)[Gal(b1-4)GlcNAc(b1-3)Gal(b1-4)GlcNAc(b1-3)Gal(b1-4)GlcNAc(b1-3)Gal(b1-4)GlcNAc(b1-3)Gal(b1-4)GlcNAc(b1-2)Man(a1-6)]Man(b1-4)GlcNAc(b1-4)[Fuc(a1-6)]GlcNAc", "procedure,_shortened": "as §1"}, "[17]": {"target": "Gal(b1-4)GlcNAc(b1-3)Gal(b1-4)GlcNAc(b1-3)Gal(b1-4)GlcNAc(b1-3)Gal(b1-4)GlcNAc(b1-3)Gal(b1-4)GlcNAc(b1-2)[Gal(b1-4)GlcNAc(b1-3)Gal(b1-4)GlcNAc(b1-3)Gal(b1-4)GlcNAc(b1-3)Gal(b1-4)GlcNAc(b1-3)Gal(b1-4)GlcNAc(b1-6)]Man(a1-6)[Gal(b1-4)GlcNAc(b1-3)Gal(b1-4)GlcNAc(b1-3)Gal(b1-4)GlcNAc(b1-3)Gal(b1-4)GlcNAc(b1-3)Gal(b1-4)GlcNAc(b1-2)Man(a1-3)]Man(b1-4)GlcNAc(b1-4)[Fuc(a1-6)]GlcNAc", "procedure,_shortened": "as §1"}, "[18]": {"target": "Gal(b1-4)GlcNAc(b1-3)Gal(b1-4)GlcNAc(b1-3)Gal(b1-4)GlcNAc(b1-3)Gal(b1-4)GlcNAc(b1-3)Gal(b1-4)GlcNAc(b1-3)Gal(b1-4)GlcNAc(b1-2)Man(a1-3)[Gal(b1-4)GlcNAc(b1-3)Gal(b1-4)GlcNAc(b1-3)Gal(b1-4)GlcNAc(b1-3)Gal(b1-4)GlcNAc(b1-3)Gal(b1-4)GlcNAc(b1-3)Gal(b1-4)GlcNAc(b1-2)Man(a1-6)]Man(b1-4)GlcNAc(b1-4)GlcNAc", "procedure,_shortened": "as §1"}, "[19]": {"target": "Gal(b1-4)GlcNAc(b1-3)Gal(b1-4)GlcNAc(b1-3)GalNAc", "procedure,_shortened": "as §1"}}, "note": "The other results are listed elsewhere or left out.", "data": [{"binder": "B1", "values": [{"measurement": "glycan array binding signal (z-score)", "setting": "[1]", "result": -0.246}, {"measurement": "glycan array binding signal (z-score)", "setting": "[2]", "result": -0.13}, {"measurement": "glycan array binding signal (z-score)", "setting": "[3]", "result": 0.699}, {"measurement": "glycan array binding signal (z-score)", "setting": "[4]", "result": -0.013}, {"measurement": "glycan array binding signal (z-score)", "setting": "[5]", "result": 0.1}, {"measurement": "glycan array binding signal (z-score)", "setting": "[6]", "result": 0.038}, {"measurement": "glycan array binding signal (z-score)", "setting": "[7]", "result": 0.216}, {"measurement": "glycan array binding signal (z-score)", "setting": "[8]", "result": -0.116}, {"measurement": "glycan array binding signal (z-score)", "setting": "[9]", "result": 0.009}, {"measurement": "glycan array binding signal (z-score)", "setting": "[10]", "result": 0.095}, {"measurement": "glycan array binding signal (z-score)", "setting": "[11]", "result": 0.191}, {"measurement": "glycan array binding signal (z-score)", "setting": "[12]", "result": -0.002}, {"measurement": "glycan array binding signal (z-score)", "setting": "[13]", "result": 0.076}, {"measurement": "glycan array binding signal (z-score)", "setting": "[14]", "result": 0.138}, {"measurement": "glycan array binding signal (z-score)", "setting": "[15]", "result": 0.098}, {"measurement": "glycan array binding signal (z-score)", "setting": "[16]", "result": 0.02}, {"measurement": "glycan array binding signal (z-score)", "setting": "[17]", "result": 0.068}, {"measurement": "glycan array binding signal (z-score)", "setting": "[18]", "result": -0.012}, {"measurement": "glycan array binding signal (z-score)", "setting": "[19]", "result": -0.082}]}]}
